About 6,900 (2%) of roughly 340,000 compounds were called active. No stated cut-off is given here; in the data, active means inhibition above about 30%; inactive means below that, where a call was filed. The entries are a selection whose mix differs from that of the whole data set. Where no call is shown, the source filed none.
Target: D(2) dopamine receptor (Homo sapiens) (UniProt P14416)
Assay: HTS Assay for Allosteric Antagonists of the Human D2 Dopamine Receptor: Primary Screen for Antagonists; further: 0% is about no effect
Settings: HEK293 TREx D2 cells, calcium flux, dopamine EC80; at 10 µM; stronger effect = higher value
In short: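 Compounds are added to dye-loaded, induced HEK293 T-REx cells coupled to calcium release via D2; after a 3 min kinetic read an EC80 dopamine stimulus is given and fluorescence is recorded for 3 more min.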

UniProt P14416, sequence (P14416 whole entry, looked up): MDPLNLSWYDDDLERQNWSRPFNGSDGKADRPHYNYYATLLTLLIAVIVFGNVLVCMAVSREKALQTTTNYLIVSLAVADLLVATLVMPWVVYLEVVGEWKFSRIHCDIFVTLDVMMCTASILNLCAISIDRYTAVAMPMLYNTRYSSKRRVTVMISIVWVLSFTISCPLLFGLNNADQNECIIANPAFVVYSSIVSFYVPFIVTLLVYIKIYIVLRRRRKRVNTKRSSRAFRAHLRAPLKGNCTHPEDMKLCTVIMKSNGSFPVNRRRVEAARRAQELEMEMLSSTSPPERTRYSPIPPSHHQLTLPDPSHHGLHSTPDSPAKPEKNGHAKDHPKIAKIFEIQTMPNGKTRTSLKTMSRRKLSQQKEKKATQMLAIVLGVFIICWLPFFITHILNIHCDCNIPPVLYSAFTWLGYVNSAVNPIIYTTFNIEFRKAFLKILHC

First: COc1ccc(NC(=O)C(Cc2c[nH]c3ccccc23)NC(=O)OC(C)(C)C)cc1 (stereo not given)
Second: COc1ccc(-c2cn3nc(N4CCC(C(=O)Nc5ccccc5OC)CC4)sc3n2)cc1
The inhibition of the first is higher: -5.21% for the first, -23.8% for the second.

First: O=C(CSc1nc(=O)[nH]c2c1CCCC2)Nc1ccc(Cl)c(Cl)c1
Second: COc1ccc(C(=O)Nc2ccc3nc4c(c(Nc5ccc(OC)c(OC)c5)c3c2)CCCC4)c(OC)c1
The inhibition of the first is higher: -5.15% for the first, -8.45% for the second.

Going from CCN(CC)C(=O)c1ccc2c(c1)N(Cc1c(F)cccc1Cl)C(=O)c1ccccc1S2 to CCN(CC)C(=O)c1sc2c(c1C)c(=O)n(-c1ccccc1)c(=O)n2Cc1c(C)cc(C)cc1C, the inhibition falls from 3.39% to -24.6%.

First: Cc1ccc2cc3cc(C(=O)N4CCN(c5ccc(Cl)cc5)CC4)oc3nc2c1
Second: Cc1ccc(N(CC(=O)N2CCN(c3cccc(Cl)c3)CC2)S(=O)(=O)c2c(C)noc2C)cc1
The inhibition of the first is higher: 2.51% for the first, -1.3% for the second.

Going from Cc1ccccc1NC(=O)c1c(NC(=O)c2ccccc2)sc2c1CCC2 to Cc1ccc(Cl)cc1-n1nnc(-c2nsc(NC(=O)c3ccccc3Cl)n2)c1C, the inhibition falls from 1.03% to -15.4%.

First: CCOc1ccc(NC(=O)CC2C(=O)N(c3ccccc3)C(=O)N2CCc2cccs2)cc1 (stereo not given)
Second: CCc1ccc(-n2c(=O)c3ccccc3n(CC(=O)NCCc3ccc(OC)c(OC)c3)c2=O)cc1
The inhibition of the first is lower: -24.8% for the first, 4.83% for the second.

Compared with COc1ccc(OC)c(NC(=O)CCCc2nnc3n(C(C)C)c(=O)c4sccc4n23)c1, CCOC(=O)c1cc2c(=O)n3ccccc3nc2n(CC(C)C)c1=NC(=O)COc1ccc(Cl)cc1 is lower in inhibition: 7.69% for the first, -7.01% for the second.

Going from CCn1cc2nc(SCc3cccc(C(F)(F)F)c3)n(Cc3ccc(Cl)cc3)c(=O)c2n1 to Cc1cc(C)cc(-n2ccnc(NCCc3ccccc3)c2=O)c1, the inhibition rises from 0.626% to 2.77%.

Going from Cc1ccc2oc(C(=O)Nc3ccc(S(=O)(=O)N4CCCC(C)C4)cc3)cc(=O)c2c1 (stereo not given) to COc1ccc(C)cc1NC(=O)N1CCC(CN2CCOCC2)CC1, the inhibition rises from -12.7% to 3.65%.

Cc1ccc(C)c(N2CCN(C(=O)c3cnn(C(C)(C)C)c3C3CCN(C(=O)OC(C)(C)C)CC3)CC2)c1 showed an inhibition of -4.62%.

For COc1ccc(OC)c(/C=C/C(=O)Nc2ccc3c(c2)CCC3)c1, the inhibition was active: 49.4%.
For COc1cc2[nH]c(C(=O)NCC3CCCO3)cc2c(OC)c1OC (stereo not given), the inhibition was active: 55.3%.
O=C(COc1ccccc1Cl)Nc1ccccc1C(=O)Nc1cccc(C(=O)O)c1 was tested, and the inhibition was active: 30.6%.
OCCNC(=S)Nc1ccc2nsnc2c1 was tested, and the inhibition was active: 30.7%.
For O=C(O)CC/C(=N\Nc1ccc(S(=O)(=O)N2CCOCC2)cc1[N+](=O)[O-])c1cccs1, the inhibition was active: 30%.
In the case of CCN(Cc1ccccc1)Cc1ccc(OCc2ccccc2)cc1, the inhibition is reported as active: 31.1%.

— PubChem BioAssay AID485344 (National Center for Advancing Translational Sciences (NCATS), 2010)
